# In all, about 310,000 compounds went through this assay and about 18,000 (5.8%) were called active. The inconclusive results got no clear call from the source; some entries with a clear call stand among them for comparison. Calls come from the whole dose curve; as a rule, active = well fitted inhibition curve with a large enough effect; inconclusive = small, poorly fitted or top-dose-only effect, or another doubt; inactive = no such curve, though single readings can be large or run the other way. No potency is given beside an inconclusive call; the fits are too rough.
# Test: Primary qHTS for delayed death inhibitors of the malarial parasite plastid, 48 hour incubation
# Conditions: P. falciparum luciferase growth in erythrocytes; series mostly up to 28.7 µM; activity change, negative = inhibition: at the top concentration
# Method in brief: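 Cell-based growth assay: transgenic P. falciparum expressing firefly luciferase, cultured in red cells within RPMI 1640 containing 0.5% w/v Albumax, 24 mM bicarbonate and gentamycin. A drop in luciferase activity indicates inhibition.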
# % is set by controls: 0 for no effect and ±100 for the full control effect; potency is the fitted concentration of half-maximal effect; tags give direction and shape of the fitted curve.
SMILES,"activity change, negative = inhibition",Potency
COc1ccc(/C=N/NC(=O)c2nnn(-c3nonc3N)c2CN(C)c2ccccc2)cc1,inactive: 11.1%,
CC(C)NCC(O)COC1C2CC3CC(C2)CC1C3 (configuration not stated),,active: 8.28 µM
CC(C)(C)c1csc(NC(=O)c2ccc(Cl)s2)n1,,active: 3.7 µM
C/C(=N\NS(=O)(=O)c1ccccc1)c1ccc2c(c1)OCO2,inactive: 79.2%,
COC(=O)c1c(NC(=O)CN2CCN(c3ncccn3)CC2)sc(C(N)=O)c1C,,"inconclusive [inhibitor, single point]"
COc1ccc(C(=O)N2CCN(CCNC(=O)C(=O)Nc3ccc(Br)cc3)CC2)cc1,inactive: -15.8%,
COc1ccc(/C=N\NC(=O)c2ccc([N+](=O)[O-])c(C)c2)cc1COc1ccccc1C(N)=O,,"inconclusive [inhibitor, partial curve, poor fit]"
CCOc1ccc2[nH]c(=O)c(CN(CC3COCCO3)C(=O)c3ccc(C)cc3)cc2c1 (configuration not stated),inactive: -13.6%,
O=C(O)Cc1ccc(-c2ccccc2-c2ccccc2)cc1,,"inconclusive [inhibitor, single point]"
CCC/C(C)=N/NC(=O)c1ccccc1O,inactive: -11.4%,
CSc1ccc(C2C(C#N)=C(N)N(c3ccccc3)C3=C2C(=O)CCC3)cc1 (configuration not stated),,active: 13.1 µM
COc1ccc2nc(NC(=O)C3CCN(S(=O)(=O)c4cnc[nH]4)CC3)sc2c1,inactive: -26.7%,
NC(N)=N/N=C/c1ccccc1OC(F)F,,"inconclusive [inhibitor, partial curve, poor fit]"
Cn1c(COc2ccccc2)nnc1SCC(=O)c1cccc([N+](=O)[O-])c1,,"inconclusive [inhibitor, partial curve]"
CCc1cccc(C)c1NC(=O)CSc1nnc(-c2cc3cc(Br)ccc3o2)n1CC,,"inconclusive [inhibitor, single point]"
N#CCc1c(C#N)c(N)nc(N2CCN(S(=O)(=O)c3ccccc3F)CC2)c1C#N,,"inconclusive [inhibitor, full curve, poor fit]"
Cc1cc(C)n(Cc2cccc(C(=O)N/N=C/c3ccncc3)c2)n1,inactive: -5.81%,
CC(C)OP(=O)(OC(C)C)C(C)NC(=O)Cc1ccccc1 (configuration not stated),,"inconclusive [inhibitor, partial curve, poor fit]"
COc1ccc(C2Nc3ccccc3C(=O)N2NS(=O)(=O)c2ccccc2)cc1OC (configuration not stated),,"inconclusive [inhibitor, partial curve]"
CCOc1ccccc1CN1CCNC(=O)C1CC(=O)NC1CCCCC1 (configuration not stated),,"inconclusive [inhibitor, partial curve, poor fit]"
CCOC(=O)N1CCN(C(=O)CCCn2c(=S)[nH]c3ccc(Br)cc3c2=O)CC1,,"inconclusive [inhibitor, single point]"
O=C1CS/C(=N/N=C/c2c[nH]c3ccccc23)N1,,"inconclusive [inhibitor, single point]"
COc1cccc(-c2cc(C(=O)NCC3CCCO3)c3ccccc3n2)c1 (configuration not stated),inactive: -6.33%,
O=C(COC(=O)c1ccc(S(=O)(=O)N2CCCCCC2)cc1)NCc1ccc(F)cc1,,"inconclusive [inhibitor, single point]"

SMILES,"activity change, negative = inhibition",Potency
COC(=O)c1ccc(-c2cc(CC3(C(=O)OC)CCN(C(=O)OC(C)(C)C)CC3)on2)cc1,,"inconclusive [inhibitor, partial curve]"
CC(C)(C)c1cc(NC(=O)c2cccc(S(=O)(=O)N3CCOCC3)c2)no1,,"inconclusive [inhibitor, partial curve, poor fit]"
COc1ccc2c(c1)C1=NN(/C(C)=C/C(C)=O)C(c3ccc(F)cc3)C1CC2 (configuration not stated),inactive: 0%,
Cn1c(SCc2cccc(Br)c2)nnc1-c1ccncc1,inactive: 0.225%,
OCCN1CCN(c2nc(N3CCCCC3)nc(N3CCCCC3)n2)CC1,,active: 10.4 µM
CCn1c(=O)c(C(=O)Nc2ccc(C)cc2)c(O)c2ccccc21,inactive: 0%,
Cc1ccn2c(c1)nc(=O)c1cc(S(=O)(=O)N3CCOCC3)ccc12,,"inconclusive [inhibitor, partial curve]"
O=C(OCC(=O)N(C1CCCCC1)C1CCCCC1)c1ccc(O)cc1,,active: 8.28 µM
Nc1nc2nc(-c3cccs3)cc(C(F)(F)F)n2n1,inactive: 9.66%,
CCCCn1c(=O)c(C=Nc2ccc(Cl)cc2)c(O)n(Cc2ccco2)c1=O,,active: 8.28 µM
CC1(c2ccccc2)NC(=O)N(CC(=O)Nc2ccccc2N2CCCC2)C1=O (configuration not stated),,"inconclusive [inhibitor, partial curve]"
COc1cccc(/C=N\NC(C)=O)c1OC/C=C/c1ccccc1,,"inconclusive [inhibitor, single point]"
CCN(CC1CCCO1)C(=O)c1cc(COc2ccc(F)cc2F)on1 (configuration not stated),inactive: 50.6%,
Cc1ccc(C)c(-c2cc(C(=O)Nc3nccs3)c3ccccc3n2)c1,,"inconclusive [inhibitor, full curve, poor fit]"
Cc1cc(=O)c2cc3nc(-c4cccnc4)oc3c(Br)c2o1,,"inconclusive [inhibitor, single point]"
Nc1nc(NCC2CCCO2)nc(Nc2ccc(F)cc2)c1[N+](=O)[O-] (configuration not stated),,"inconclusive [inhibitor, partial curve, poor fit]"
C/C=C(/C)C(=O)O[C@@H]1c2c(ccc3ccc(=O)oc23)O[C@@H]1C(C)(C)OC(=O)/C(C)=C\C,,"inconclusive [inhibitor, single point]"
CNC(=O)c1cc2cccc(OC)c2oc1=O,inactive: -2.84%,
CCc1ccccc1N1CN(Cc2ccco2)CNC1=S,,"inconclusive [inhibitor, partial curve, poor fit]"
O=C(CNC(=O)c1cccs1)NCCN1CCN(c2ccccc2F)CC1,,"inconclusive [inhibitor, single point]"
O=C(NC12CC3CC(CC(C3)C1)C2)N1CCN(c2ccccc2)CC1,,"inconclusive [inhibitor, partial curve]"
CSC1=N/C(=C\c2cccnc2)C(=O)N1c1ccccc1,inactive: 15.6%,
CCOc1ccc(Cc2c(Cl)nc(N)nc2Cl)cc1,,"inconclusive [inhibitor, partial curve, poor fit]"
Cc1ccc2c(C(=O)CN3CCOCC3)c(C)[nH]c2c1,inactive: -4.06%,

SMILES,"activity change, negative = inhibition",Potency
Cc1ccc(C(=O)N2CCC(C(=O)c3c(C)cc(C)cc3C)CC2)cc1,,"inconclusive [inhibitor, partial curve, poor fit]"
Cc1cc(C(=O)N/N=C/c2cc(Br)ccc2OC(=O)c2ccc(Br)cc2)n[nH]1,,"inconclusive [inhibitor, single point]"
CCc1ccc(OCC(=O)NNC(=O)c2cc(S(=O)(=O)N3CCOCC3)ccc2N2CCCC2)cc1,,"inconclusive [inhibitor, single point]"
CC(NC(=O)NC12CC3CC(CC(C3)C1)C2)c1ccc2c(c1)OCO2 (configuration not stated),,"inconclusive [inhibitor, single point]"
COc1ccc(C2CC(O)(c3ccccc3)Oc3c(C)ccc(C)c32)cc1 (configuration not stated),,active: 9.28 µM
CC1CC(C)CN(Cc2nc(N)nc(Nc3ccc4ccccc4c3)n2)C1 (configuration not stated),,active: 11.7 µM
COc1ccc(C(OCC(O)CN2CCC(O)CC2)c2ccc(OC)cc2)cc1 (configuration not stated),inactive: -6.2%,
CC(Oc1cc2oc(=O)c3c(c2cc1Cl)CCC3)C(=O)NCCCN1CCCC1=O (configuration not stated),,"inconclusive [inhibitor, single point]"
COc1ccc(C(=O)c2c[nH]c(C(=O)NCc3cccnc3)c2)cc1,,"inconclusive [inhibitor, single point]"
CC1(C)CC2CC(C)(CN2c2ncnc3ccc(Br)cc23)C1 (configuration not stated),,"inconclusive [inhibitor, partial curve, poor fit]"
Cc1ccc(NC(=S)N2CCCC(c3ccccc3)=N2)cc1,,"inconclusive [inhibitor, single point]"
COc1ccccc1C1c2[nH]c3ccccc3c2CCN1Cc1ccc(NC(C)=O)s1 (configuration not stated),,"inconclusive [inhibitor, full curve]"
N#Cc1c(N)n(-c2ccc(C(=O)O)cc2)c2nc3ccccc3nc12,inactive: -5.06%,
CN(C)c1ccc(S(=O)(=O)N2CCCCC2)cc1NC(=O)C1=COCCO1,inactive: -14.4%,
O=C(Cn1cnc2c(nnn2Cc2ccc(F)cc2)c1=O)NCC1CCCO1 (configuration not stated),inactive: -11.9%,
CC(C)c1ccc(-c2cc(C(=O)NN3CCN(C)CC3)c3ccccc3n2)cc1,,"inconclusive [inhibitor, single point]"
CN(C(=O)c1ccco1)c1nc(CC(=O)Nc2ccccc2)cs1,inactive: 14.5%,
CN(C)CCCN(C(=O)c1ccc2ccccc2c1)c1nc2cc3c(cc2s1)OCO3,,"inconclusive [inhibitor, single point]"
COc1ccc(CCn2c(-c3ccco3)nc3ccccc3c2=O)cc1OC,,"inconclusive [inhibitor, single point]"
OCCCNc1nccc(-c2cc(Nc3cccc(Cl)c3)ncn2)n1,,"inconclusive [inhibitor, single point]"
CCOc1ccccc1NC(=O)C(OC(=O)c1ccc(NC(=O)CC#N)cc1)c1ccccc1 (configuration not stated),,active: 5.22 µM
NC(=O)c1c(/N=C/c2cccnc2)sc2c1CCCC2,inactive: -0.0907%,
CCOC(=O)C1(C/C(C)=N/NC(N)=O)CC(C)OC1=O (configuration not stated),inactive: 22.7%,
COc1ccc(-c2cn(Cc3ccc4c(c3)C(=O)c3ccccc3C4=O)nn2)cc1,,"inconclusive [inhibitor, full curve, poor fit]"

# Reference: PubChem BioAssay AID504832 (National Center for Advancing Translational Sciences (NCATS), 2011)
